# Reference: the supplement of paper PMC9174493
# The other results are listed elsewhere or left out. Single values of this set are uncertain. Values with irradiation are relative to irradiated vehicle.
# System: A549-Dual
# Assay: ISRE reporter (Lucia luciferase) activity, viability-corrected, relative to vehicle (fold change vs vehicle); higher = more activation of STING-IRF / NF-kB immune response reporter
# Settings: 10 µM; irradiation: 8 Gy/4 fr
row,SMILES,ISRE reporter
1,CCOC(=O)C1=C(C)NC(C)=C(C(=O)OCC)C1c1ccccc1/C=C/C(=O)OC(C)(C)C [Lacidipine],0.53
2,C=C1C(=O)OC2/C=C(\C)CC/C=C(\C)CCC12 (stereo unspecified) [Costunolide],0.187
3,COC(=O)CCc1ccc(OCC(O)CNC(C)C)cc1.Cl (stereo unspecified) [Esmolol HCl],0.779
4,CC(=O)NC(CC(C)C)C(=O)O (stereo unspecified) [Acetylleucine],0.785
5,COc1ccc(CN2CCN(C(c3ccc(F)cc3)c3ccc(F)cc3)CC2)c(OC)c1OC.Cl.Cl [Lomerizine 2HCl],0.916
6,CCCCCCCCCCCC(=O)O [Lauric Acid],0.888
7,CC(=O)OC/C=C/c1ccccc1 [Cinnamyl acetate],1.35
8,NC12CC3CC(CC(C3)C1)C2 [Amantadine],0.725
9,NCCC(=O)O [β-Alanine],0.274
10,N[C@H](CO)C(=O)O [(R)-Serine],1.4
11,CC(/C=C1\SC(=S)N(CC(=O)O)C1=O)=C\c1ccccc1 [Epalrestat],0.87
12,CC(COc1ccccc1)N(CCCl)Cc1ccccc1.Cl (stereo unspecified) [Phenoxybenzamine HCl],0.652
13,C=C=CCNC(=O)c1ccc(F)cc1 [Diastase],0.723
14,Cc1nnc(NS(=O)(=O)c2ccc(N)cc2)s1 [Sulfamethizole],0.684
15,O=C(O)CCCCCCCCC(=O)O [Sebacic acid],0.797
16,CC1OC1P(=O)(O)O.NC(CO)(CO)CO (stereo unspecified) [Fosfomycin Tromethamine],1.04
